Measurements: the supplement of paper PMC10126150
Values marked as one replicate rest on one cluster of the flow cell; about a third of the high ones do not repeat.
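Note: ATP exposure 15 min at 22 °C before imaging.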

What follows are sequences tested on ATP (assay: switch fluorescence ratio, 500 uM ATP over buffer (Cy3 cluster intensity, sum of 5 cycles each) (fold (ratio)); higher = stronger signal-on switching upon ATP binding; sequences stand for … in TCGTCGGCAGCGTCAGATGTGTATAAGAGACAGTTTTTTTTTTTTTTTTTTTTTTTTT…TC). Details: aptamer strand: ATP DNA aptamer (quencher-CACCTGGGGGAGTATTGCGGAGGAAGG + anchor), 100 nM annealed; ATP concentration: 500 uM; one replicate.
Outline: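 Values give the fluorescence ratio for each switch-domain sequence, averaged from per-cluster ratios of summed target-cycle to summed buffer-cycle Cy3 intensity. The Cy3-labelled switching-strand clusters sat on a modified Illumina MiSeq flow-cell, were annealed to 100 nM quencher-labelled ATP aptamer, and were imaged in selection buffer, then after 15 min with 500 uM ATP at 22 °C. Five cycles ran with NaOH stripping and re-annealing between them, and clusters outside 100-1000 RFU were excluded.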
In the case of TTTCGACCGG, the switch fluorescence ratio was 1.01. With TTTCGCAGCT the switch fluorescence ratio was 1.54. TTTCGCTCTC gave a switch fluorescence ratio of 1.17. In the case of TTTCGGCAT, the switch fluorescence ratio was 1.06. Work on TTTCGGCCGT yielded a switch fluorescence ratio of 0.983. Sequence TTTCGTAT has a switch fluorescence ratio of 1. Sequence TTTCGTCCGT has a switch fluorescence ratio of 1.1. Sequence TTTCTAAAC has a switch fluorescence ratio of 0.992. TTTCTAAAGA was tested, and the switch fluorescence ratio was 1.05. Work on TTTCTACGAA yielded a switch fluorescence ratio of 1.11. TTTCTACTTG gave a switch fluorescence ratio of 1.05. For TTTCTAGGAT, the switch fluorescence ratio was 1.01. For TTTCTATAT, the switch fluorescence ratio was 1. TTTCTATCCG gave a switch fluorescence ratio of 1.01. Work on TTTCTCATAC yielded a switch fluorescence ratio of 1.22. TTTCTCGTT was tested, and the switch fluorescence ratio was 0.99. Work on TTTCTGAAGC yielded a switch fluorescence ratio of 1.32. In the case of TTTCTGAAGG, the switch fluorescence ratio was 0.972. In the case of TTTCTGGCAG, the switch fluorescence ratio was 0.999. TTTCTGGGAA gave a switch fluorescence ratio of 0.998. In the case of TTTCTGGTGG, the switch fluorescence ratio was 0.965. TTTCTTGTAC was tested, and the switch fluorescence ratio was 1.31. TTTCTTTGG showed a switch fluorescence ratio of 1.02. Work on TTTGAAACAG yielded a switch fluorescence ratio of 0.99. TTTGAACATC showed a switch fluorescence ratio of 0.998. Work on TTTGAAGTTA yielded a switch fluorescence ratio of 1.03. With TTTGAATAGC the switch fluorescence ratio was 1.02. In the case of TTTGACGGCC, the switch fluorescence ratio was 0.979. With TTTGAGACC the switch fluorescence ratio was 0.979. TTTGAGAGAC was tested, and the switch fluorescence ratio was 0.97. Work on TTTGAGCCAA yielded a switch fluorescence ratio of 0.983. TTTGATAC gave a switch fluorescence ratio of 1.07. Sequence TTTGATCATG has a switch fluorescence ratio of 1.02. In the case of TTTGATCGCG, the switch fluorescence ratio was 0.995. In the case of TTTGCAAAAT, the switch fluorescence ratio was 1.2. In the case of TTTGCACGCG, the switch fluorescence ratio was 1.03. TTTGCAGGCC was tested, and the switch fluorescence ratio was 0.992. TTTGCCATCC was tested, and the switch fluorescence ratio was 1.02. TTTGCCCCAC showed a switch fluorescence ratio of 1.43. Work on TTTGCCCGTT yielded a switch fluorescence ratio of 0.978. TTTGCGAACG gave a switch fluorescence ratio of 1.05. In the case of TTTGCGACGC, the switch fluorescence ratio was 1.17. TTTGCGCATC was tested, and the switch fluorescence ratio was 2.33. TTTGCGCTCC was tested, and the switch fluorescence ratio was 1.02. In the case of TTTGCGGCCA, the switch fluorescence ratio was 0.998. With TTTGCGGGGC the switch fluorescence ratio was 1.05. Sequence TTTGCGGTAC has a switch fluorescence ratio of 4.47. In the case of TTTGCTCGTG, the switch fluorescence ratio was 0.963. Sequence TTTGCTGATT has a switch fluorescence ratio of 1.01. With TTTGGAACGT the switch fluorescence ratio was 0.957. For TTTGGAGAC, the switch fluorescence ratio was 1.13. With TTTGGCCAAC the switch fluorescence ratio was 1.07. Work on TTTGGCCGG yielded a switch fluorescence ratio of 1.01. In the case of TTTGGCGCCT, the switch fluorescence ratio was 0.93. TTTGGCGTCC was tested, and the switch fluorescence ratio was 1.01. TTTGGGACTG gave a switch fluorescence ratio of 1.08. With TTTGGGAGT the switch fluorescence ratio was 1.03. In the case of TTTGGGTAT, the switch fluorescence ratio was 1.01. For TTTGGTAGCG, the switch fluorescence ratio was 1.04. Sequence TTTGGTCGGC has a switch fluorescence ratio of 0.986. Work on TTTGTACGCC yielded a switch fluorescence ratio of 1.03. TTTGTCAATG showed a switch fluorescence ratio of 1.04. TTTGTCTTCC was tested, and the switch fluorescence ratio was 1.68. TTTGTGAAAA was tested, and the switch fluorescence ratio was 1.03. TTTGTGAGA was tested, and the switch fluorescence ratio was 1.02. Sequence TTTGTGGA has a switch fluorescence ratio of 0.954. TTTGTGGAA showed a switch fluorescence ratio of 0.945. In the case of TTTGTTCGCC, the switch fluorescence ratio was 1.03. With TTTGTTGCAT the switch fluorescence ratio was 0.959. TTTTAACAT was tested, and the switch fluorescence ratio was 1.03. For TTTTAATCAA, the switch fluorescence ratio was 0.989. TTTTACAA showed a switch fluorescence ratio of 0.984. Work on TTTTACAACG yielded a switch fluorescence ratio of 1.05. TTTTACACGT showed a switch fluorescence ratio of 1.05. TTTTACATCT gave a switch fluorescence ratio of 1.03. Sequence TTTTACTCA has a switch fluorescence ratio of 1.01. TTTTACTTAT gave a switch fluorescence ratio of 1.05. In the case of TTTTAGACTC, the switch fluorescence ratio was 1.05. In the case of TTTTAGAGTC, the switch fluorescence ratio was 1.02. Work on TTTTAGCGCG yielded a switch fluorescence ratio of 0.972. With TTTTAGGCTA the switch fluorescence ratio was 0.941. With TTTTAGTATC the switch fluorescence ratio was 1.41. TTTTATAACT showed a switch fluorescence ratio of 1.03. TTTTATGCTC gave a switch fluorescence ratio of 1.01. TTTTATTAGG was tested, and the switch fluorescence ratio was 0.95. For TTTTATTCAA, the switch fluorescence ratio was 0.993. Sequence TTTTATTCG has a switch fluorescence ratio of 1.05. With TTTTATTGCC the switch fluorescence ratio was 1. With TTTTATTGG the switch fluorescence ratio was 0.997. For TTTTATTTCC, the switch fluorescence ratio was 1.09. TTTTATTTGA gave a switch fluorescence ratio of 1.01. For TTTTCAACGA, the switch fluorescence ratio was 1.02. TTTTCAGCGT was tested, and the switch fluorescence ratio was 0.993. Work on TTTTCATTA yielded a switch fluorescence ratio of 0.993. Work on TTTTCCACG yielded a switch fluorescence ratio of 1. In the case of TTTTCCCTGA, the switch fluorescence ratio was 0.994. For TTTTCGAGTT, the switch fluorescence ratio was 0.966. Sequence TTTTCGTGCC has a switch fluorescence ratio of 0.963. In the case of TTTTCGTTCT, the switch fluorescence ratio was 0.956. TTTTGAGGA was tested, and the switch fluorescence ratio was 0.985. For TTTTGATGCA, the switch fluorescence ratio was 1.1. Work on TTTTGATTA yielded a switch fluorescence ratio of 0.999. With TTTTGCATCT the switch fluorescence ratio was 1.03. TTTTGCCACG showed a switch fluorescence ratio of 0.997. With TTTTGCCCCT the switch fluorescence ratio was 1.05. Sequence TTTTGCCGTG has a switch fluorescence ratio of 0.964. TTTTGGACTT was tested, and the switch fluorescence ratio was 1. TTTTGGCCCA showed a switch fluorescence ratio of 0.967. For TTTTGTAACC, the switch fluorescence ratio was 1.01. TTTTGTCTGA showed a switch fluorescence ratio of 1. Work on TTTTT yielded a switch fluorescence ratio of 0.976. In the case of TTTTTCACAA, the switch fluorescence ratio was 1.03. With TTTTTGATGC the switch fluorescence ratio was 1.02. Work on TTTTTGCCCG yielded a switch fluorescence ratio of 0.945. TTTTTGCGAC showed a switch fluorescence ratio of 2.11. TTTTTGGGG was tested, and the switch fluorescence ratio was 1.02.
